# Results published in PubChem BioAssay AID488969 (Vanderbilt High Throughput Screening Facility, 2010).
# In all, about 110,000 compounds were measured (“z-score”: median about -0.1, highest 2% from about 2 on). The list shows a part of the results. The source made the active and inactive calls.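 How the source made its calls: active means z-score in the third read window above 3 or below -3; inactive means the rest.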
# Biological target: Metabotropic glutamate receptor 8 (Rattus norvegicus) (UniProt P70579)
# UniProt P70579, sequence (P70579 whole entry, looked up): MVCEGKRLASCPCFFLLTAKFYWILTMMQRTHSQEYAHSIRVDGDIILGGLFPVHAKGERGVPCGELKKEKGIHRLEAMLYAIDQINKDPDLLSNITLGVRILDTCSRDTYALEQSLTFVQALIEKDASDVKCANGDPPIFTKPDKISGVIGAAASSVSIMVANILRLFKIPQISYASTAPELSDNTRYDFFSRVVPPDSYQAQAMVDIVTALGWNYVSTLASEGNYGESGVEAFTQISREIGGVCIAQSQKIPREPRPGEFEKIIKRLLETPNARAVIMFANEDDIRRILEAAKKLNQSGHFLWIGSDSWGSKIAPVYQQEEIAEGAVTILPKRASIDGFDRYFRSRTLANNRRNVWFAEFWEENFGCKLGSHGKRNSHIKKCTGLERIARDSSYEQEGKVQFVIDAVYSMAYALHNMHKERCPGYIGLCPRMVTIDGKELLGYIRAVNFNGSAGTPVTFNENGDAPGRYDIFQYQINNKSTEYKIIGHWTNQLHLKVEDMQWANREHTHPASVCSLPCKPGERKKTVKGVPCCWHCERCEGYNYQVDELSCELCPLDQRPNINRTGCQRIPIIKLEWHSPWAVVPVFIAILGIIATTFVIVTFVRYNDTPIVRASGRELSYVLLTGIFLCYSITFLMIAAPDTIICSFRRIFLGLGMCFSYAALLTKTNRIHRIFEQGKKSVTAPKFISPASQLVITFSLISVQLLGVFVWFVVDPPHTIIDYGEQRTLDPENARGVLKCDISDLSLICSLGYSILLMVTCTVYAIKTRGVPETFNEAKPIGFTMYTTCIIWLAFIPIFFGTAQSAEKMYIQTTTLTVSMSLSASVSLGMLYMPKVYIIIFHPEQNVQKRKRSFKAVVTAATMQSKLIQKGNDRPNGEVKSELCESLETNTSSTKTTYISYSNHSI
# Experiment: mGluR8 Gi/Go-coupled signaling modulation – cell-based, rat, thallium flux, HTS, primary screen (AID 488969)
# Settings: HEK293 rat mGluR8, GIRK (G protein-gated inwardly rectifying potassium channel) thallium flux, FluoZin2; at 10 µM; stronger effect = higher value; submaximal glutamate (EC20) added with thallium
row,Compound,z-score
1,COc1ccc(/C=C/C(=O)NCc2c(C)nn(C)c2C)cc1COc1ccc(Br)cc1,-0.131
2,COc1ccc(C(=O)NCc2ccc3c(c2)OCO3)cc1S(=O)(=O)NCc1ccc(Cl)cc1,0.0295
3,CN1CCN(C(=S)c2ccc(Br)cc2)CC1,-0.156
4,O=C(CSc1nc2ccc(NC(=O)CSc3nnnn3Cc3ccccc3)cc2s1)Nc1ccccc1,-1.26
5,CC(C)CC(NC(=O)COc1ccccc1)C(=O)O (stereo unspecified),-0.0932
6,O=C(CCCCn1c(=O)c2ccccc2n(CC(=O)Nc2ccccc2)c1=O)NCc1ccco1,-0.216
7,CO/C([O-])=N/c1c[n+](-c2ccc(C)cc2)no1,-0.0197
8,CC1CCc2cc(F)ccc2N1C(=O)c1ccncc1 (stereo unspecified),-0.15
9,O=C(O)c1nn(-c2ccccc2)ccc1=O,-0.459
10,CCCCC(=O)Nc1nc(C)c(-c2csc(Nc3cc(Cl)ccc3OC)n2)s1,-0.0989
11,CC1CCCN(Cc2nc3c(c(=O)n(C)c(=O)n3C)n2CCCc2ccccc2)C1 (stereo unspecified),-2.08
12,CCCCOC(=O)c1ccc(NC(=O)C(=O)NCc2ccncc2)cc1,0.0391
13,O=C(Nc1ccccn1)c1cccnc1,0.383
14,CC1(C)C(C=C(Cl)Cl)C1C(=O)N1CCN(c2ccccc2)CC1 (stereo unspecified),-0.224
15,O=C(COc1ccccc1)N(CCc1ccccc1)c1nc(-c2ccc(F)cc2)cs1,0.0115
16,CCOc1ccc(NC(=O)C2CC=CCC2C(=O)O)cc1 (stereo unspecified),0.174
17,COc1cc(C(C)=O)ccc1Oc1ncnc2c1cnn2-c1ccc(F)cc1,-0.132
18,CSc1cccc(NC(C)=O)c1,-0.179
19,O=S(=O)(CCSc1nc2ccccc2o1)c1nc2ccccc2s1,-1.13
20,CCOC(=O)CNS(=O)(=O)c1c(C)noc1C,-0.188
21,O=C1CCCN1c1ccc(Br)cc1,-0.00112
22,O=C(CCNc1ccc(F)cc1)c1cccc([N+](=O)[O-])c1,0.0284
23,CC(=O)Nc1cccc(-c2nnc(SCC(=O)n3c4c(c5ccccc53)CCCC4)n2C)c1,-0.889
24,O=C1CC(c2ccccc2)n2nc(NC(=O)c3cccs3)nc2N1 (stereo unspecified),0.0259

row,Compound,z-score
1,O=C(c1ccc(NS(=O)(=O)c2ccccc2)cc1)N1CCN(Cc2ccc3c(c2)OCO3)CC1,0.0447
2,COC(=O)NCC(c1cccnc1)N1CCOCC1 (stereo unspecified),-0.0687
3,CN(C)S(=O)(=O)Oc1ccsc1C(=O)Nc1ccc(Cl)cc1,-0.79
4,CCC1(C)N=c2c(c(=O)n(C)c(=O)n2C)=NO1 (stereo unspecified),-0.0703
5,CC(C)(C)SCCNC(=O)c1ccc(Cl)c(S(=O)(=O)N2CCOCC2)c1,0.258
6,O=C(CN1CCN(c2ncccn2)CC1)NCCC1=CCCCC1,0.402
7,Cc1nn(-c2ccccc2)c(C)c1C(=O)OCC(=O)Nc1ccc2c(c1)OCO2,-0.464
8,Cc1ccc(CCN2CC(C(=O)NCCCOC(C)C)CC2=O)cc1 (stereo unspecified),-0.0457
9,COc1ccc(-c2nc(-n3c(C)c(C(C)=O)c(C(C)=O)c3C)sc2C)cc1OC,-0.504
10,O=C(NNC1=NCCC1)c1cccc(Br)c1,0.433
11,Cc1noc(C)c1S(=O)(=O)N1CCC(C(=O)N2CCN(C3CCCC3)CC2)CC1,-0.239
12,COc1ccc(/C(O)=C2/C(=O)C(=O)N(CCCN(C)C)C2c2cccc(Cl)c2)cc1OC (stereo unspecified),0.0765
13,COc1cc2c(cc1NC(=O)C(C)OC(=O)/C=C/c1ccc(OC(F)F)cc1)oc1ccccc12 (stereo unspecified),-0.0559
14,O=C(COC(=O)Cc1ccsc1)Nc1ccc(S(=O)(=O)N2CCOCC2)cc1,0.284
15,CNC(=S)N1CCN(C(=O)c2ccco2)CC1,2.05
16,Cc1nn(C)c(C(=O)N/N=C/c2ccccc2)c1[N+](=O)[O-],-0.216
17,Cc1ccccc1NC(=S)NCC(c1cccnc1)N1CCOCC1 (stereo unspecified),-0.0608
18,CCOC(=O)C(C(=O)NCc1cccc(OC)c1)c1ncc(C(F)(F)F)cc1Cl (stereo unspecified),1.13
19,COc1ccc(NC(=O)CSc2nnc(N)s2)cc1,-0.131
20,COc1cc(/C=N/NC(N)=O)cc(Br)c1OCc1ccccc1C,0.308
21,O=C(c1ccccc1)N1CN2CN(C(=O)c3ccccc3)CC([N+](=O)[O-])(C2)C1,0.182
22,COc1ccc(C(=O)COC(=O)CCN2C(=O)C3C4CC(C(Br)C4Br)C3C2=O)cc1 (stereo unspecified),0.166
23,N#Cc1c(SCC(N)=O)nsc1SCc1ccccc1Cl,1.08
24,CCCC(C)NC(=O)c1ccc(C2SCC(=O)N2Cc2ccco2)cc1 (stereo unspecified),0.33

row,Compound,z-score
1,Cc1cnnc2c1-c1nonc1CC2,0.154
2,c1ccc2[nH]c(SCc3cscn3)nc2c1,0.00573
3,CCOC(=O)c1ccoc1CSCc1ccc(C(=O)OC)o1,-0.112
4,COc1ccc(OC)c(CNC(=O)C2CCCN(C(=O)N(C)C)C2)c1 (stereo unspecified),0.0878
5,O=C(C1CCN(S(=O)(=O)c2cnc[nH]2)CC1)N1CCN(c2ncccn2)CC1,0.334
6,C=CCNCCCOc1ccc(C)cc1Br,0.425
7,CCCCOc1ccc(-n2nc(C)cc2C)nn1,-0.141
8,O=C(NC1CC1)c1ccc(CSCc2cccc(F)c2)o1,active: 4.11
9,Cc1ccc(C)c(-n2c(Cc3cc(=O)[nH]c(=O)[nH]3)nnc2SCC(=O)NCc2ccco2)c1,-0.506
10,O=C(C1COc2ccccc2O1)N1CCOCC1 (stereo unspecified),-0.532
11,O=S(=O)(Nc1ccc2c(c1)OCCO2)c1ccc2oc3ccccc3c2c1,1.03
12,CCCCSc1nc2c(cnn2-c2ccc(C)c(C)c2)c(=O)[nH]1,0.044
13,CCOC(=O)N1CCN(C(=O)C(C)SCc2ccccc2)CC1 (stereo unspecified),0.101
14,O=C(Nc1nc2ccccc2[nH]1)c1ccc(F)c(S(=O)(=O)N2CCOCC2)c1,-0.0727
15,COCc1c(C#N)c(NCCc2ccccc2)nc(C)c1[N+](=O)[O-],-0.0955
16,COc1cccc(Cn2nnc(C(=O)NCc3ccccc3Cl)c2N)c1,-0.0514
17,CN1C(=O)C2(c3ccccc31)N(C)CC(c1ccccc1)C21SC(=S)N(Cc2ccco2)C1=O (stereo unspecified),-0.0787
18,Cc1ccc(-c2nnc(SCC(=O)N3c4ccccc4NC(=O)C3(C)C)n2N)cc1,-1.66
19,O=C(Nc1ccc(N2CCCC2)cc1)C(c1ccccc1)c1ccccc1,-0.177
20,CCc1cc(C(c2ccc(F)cc2)N2CCOCC2)c(NC(=O)c2ccccc2)s1 (stereo unspecified),-0.163
21,COc1ccc(CCn2c(=N)c(C(=O)N3CCN(C)CC3)cc3c(=O)n4ccccc4nc32)cc1,-0.214
22,COc1ccc(-c2nnc(SCc3ccccn3)n2C)cc1,0.00196
23,COc1ccc2nc(/N=C/c3c(C)[nH]n(-c4ccc(C)cc4C)c3=O)sc2c1,active: 15.7
